Results published in US20220185896A1.

Target: recombinant, full length human Galectin-9 (human), O00182
Test: cell-based or functional assay

B1: anti-Galectin-9 antibody G9.2-17 (IgG4) (antibody)
heavy: EVQLVESGGGLVQPGGSLRLSCAASGFTVSSSSIHWVRQAPGKGLEWVAYISSSSGYTYYADSVKGRFTISADTSKNTAYLQMNSLRAEDTAVYYCARYWSYPSWWPYRGMDYWGQGTLVTVSSASTKGPSVFPLAPCSRSTSESTAALGCLVKDYFPEPVTVSWNSGALTSGVHTFPAVLQSSGLYSLSSVVTVPSSSLGTKTYTCNVDHKPSNTKVDKRV[human IgG4 Fc with S228P L445P (EU numbers) cut from this listing]
light: DIQMTQSPSSLSASVGDRVTITCRASQSVSSAVAWYQQKPGKAPKLLIYSASSLYSGVPSRFSGSRSGTDFTLTISSLQPEDFATYYCQQSSTDPITFGQGTKVEIKRTVAAPSVFIFPPSDEQLKSGTASVVCLLNNFYPREAKVQWKVDNALQSGNSQESVTEQDSKDSTYSLSSTLTLSKADYEKHKVYACEVTHQGLSSPVTKSFNRGEC
apoptosis of MOLM-13 cells: 10%
